The results in this text go back to patent publication US6562588B2, “Sialidase and recombinant cell lines” (Genentech, Inc., priority 1993, dated 2003).

The Km is the concentration of substrate that gives half-maximal velocity. In general, Vmax refers to the rate approached at saturating substrate.

The target in data set [1] is T1, CHO cell sialidase (Cricetulus griseus, UniProt Q64393). Put plainly: Sialidase activity toward gangliosides and colominic acid (thiobarbiturate assay). It is filed as biochemical, Chinese hamster. Also noted: The sialidase described is purified exclusively from the cell culture fluid of a single production cell line (CHO 14.16); endogenous in cells; host or cells: CHO 14.16 cells (serum-free culture fluid). As to conditions: for Hydrolysis of ganglioside by the sialidase (in words): cholic acid as solubilizing agent; for Relative Activity: substrates at 4 mM, pH 6.0, initial rate, cholic acid (0.05%) with lipid substrates, relative to α-2,3 sialyllactose. Here is the method:
Sialidase assays with natural substrates: When natural substrates are tested with the purified enzyme, the amount of released sialic acid is measured using the thiobarbituric acid assay as modified by Uchida [Uchida et al. J. Biochem., 82:1425 (1977)] using sialic acid as standard. The amount of sialic acid in control samples, which include a complete assay mixture incubated without added enzyme is subtracted from each determination. all samples are cleared by centrifugation (1,000×G. 10 min) prior to determining the absorbance at 540 nm.
Some gangliosides are degraded by the sialidase, TABLE III; although these substrates require the presence of cholic acid as a solubilizing agent in the assay for optimal activity.

The target of data set [2] is T1, CHO cell sialidase. The data set can be described thus: Sialidase kinetic constants with soluble sialylglycoconjugate substrates. Format: biochemical, Chinese hamster. Also noted: The sialidase described is purified exclusively from the cell culture fluid of a single production cell line (CHO 14.16); endogenous in cells; host or cells: CHO 14.16 cells (serum-free culture fluid). The note with it: apparent value; standard assay conditions; average of duplicates.

T1 sequence (Q64393 whole entry): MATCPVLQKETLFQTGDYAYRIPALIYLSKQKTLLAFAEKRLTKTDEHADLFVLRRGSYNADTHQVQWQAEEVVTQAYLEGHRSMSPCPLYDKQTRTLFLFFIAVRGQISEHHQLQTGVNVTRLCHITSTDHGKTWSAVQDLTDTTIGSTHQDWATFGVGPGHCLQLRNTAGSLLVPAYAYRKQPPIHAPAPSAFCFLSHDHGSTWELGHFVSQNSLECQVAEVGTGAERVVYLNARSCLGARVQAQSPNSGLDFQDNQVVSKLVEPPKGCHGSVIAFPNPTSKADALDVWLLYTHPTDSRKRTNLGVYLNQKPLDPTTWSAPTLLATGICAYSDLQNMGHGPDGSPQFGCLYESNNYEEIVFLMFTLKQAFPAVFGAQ

For ||NeuAc-LacCer [GM3], in data set [1], the “Hydrolysis of ganglioside by the sialidase (in words)” value (“Hydrolysis of ganglioside” for short) is “hydrolyzed at comparable rates” and the “Relative Activity” value worked out at 29%.

For “Transferrin: isolated from human serum, contains only 2,6 linked sialic acid residues; glycoprotein substrate”, in data set [2], the Km was 4100 µM and the Vmax worked out at 2 µmol/min/mg.

In the case of `CC(=O)N[C@H]1[C@H]([C@H](O)[C@H](O)CO)O[C@@](OC[C@H]2O[C@@H](O[C@H]3[C@H](O)[C@@H](O)C(O)O[C@@H]3CO)[C@H](O)[C@@H](O)[C@H]2O)(C(=O)O)C[C@@H]1O` (stereo partly drawn) [α-2,6 Sialyllactose], in data set [2], the Km amounted to 1200 µM and the maximum rate (Vmax) is 4 µmol/min/mg.

On to IV^3NeuAc, ||^3NeuAc-GgOse4Cer [GD1a], for which, in data set [1], the “Hydrolysis of ganglioside” value was “hydrolyzed at comparable rates” and the “Relative Activity” value was found to be 21%.

Turning to `CC(=O)N[C@H]1[C@H]([C@H](O)[C@H](O)CO)O[C@@](O[C@H]2[C@@H](O)[C@@H](CO)O[C@@H](O[C@H]3[C@H](O)[C@@H](O)C(O)O[C@@H]3CO)[C@@H]2O)(C(=O)O)C[C@@H]1O` (stereo partly drawn) [α-2,3 Sialyllactose], the “Relative Activity” value in data set [1] was determined as 100%. Besides, in data set [2], the Michaelis constant (Km) is 1300 µM and the Vmax amounted to 16 µmol/min/mg.

For the molecule ||^3NeuAc-GgOse3Cer [GM2], in data set [1], the “Hydrolysis of ganglioside” value is reported as “not substrates”.

Take Colominic Acid: the “Relative Activity” value in data set [1] stood at 4%.

`CC(=O)N[C@H]1[C@H]([C@H](O)[C@H](O)CO)O[C@@](Oc2ccc3c(C)cc(=O)oc3c2)(C(=O)O)C[C@@H]1O` [4-MU-Neu5Ac, (4-methylumbelliferyl-5-acetamido-3,5-dideoxy-D-glycero-α-D-galacto-nonulopyranosid)onic acid]: in data set [2], the Km is 400 µM and the maximal velocity (Vmax) was 18 µmol/min/mg.

On to “IV^3NeuAc, ||^3(NeuAc)2-GgOse4Cer [GT1b]”, for which, in data set [1], the “Hydrolysis of ganglioside” value is “hydrolyzed at comparable rates” and the “Relative Activity” value stood at 23%.

On to `CC(=O)N[C@H]1[C@H]([C@H](O)[C@H](O)CO)O[C@@](O[C@H](CO)[C@@H](O)[C@@H]2OC(O)(C(=O)O)C[C@H](O)[C@H]2NC(C)=O)(C(=O)O)C[C@@H]1O` (stereo partly drawn) [Sialic acid dimer], for which, in data set [2], the Km came out at 3400 µM and the Vmax was 11 µmol/min/mg.

For the molecule ||^3(NeuAc)2-GgOse4Cer [GD1b], in data set [1], the “Hydrolysis of ganglioside” value is given as “not substrates”.

For the molecule ||^3NeuAc-GgOse4Cer [GM1], the “Hydrolysis of ganglioside” value in data set [1] is on record as “not substrates”.
